Laboratory results from the supplement of paper PMC4967469.
The IC50 comes from the fitted curve, where viability falls to half of the control; fits outside the tested doses are given as limits. For AUC the same curve is integrated over the 256-fold range of doses and scaled to a fraction; the more sensitive the line, the further below 1. For some assays here: The top dose, if marked as inferred, was derived from the fitted curves, not read from the paper. For some assays here: An entry number marks a drug with two screens in the source, which often give different values.

Columns and labels:
Test in all cases: Viability of human cancer cell lines after 72 h of drug (GDSC screen)
RDEA119 = compound: COc1cc(F)c(F)c(Nc2ccc(I)cc2F)c1NS(=O)(=O)C1(C[C@H](O)CO)CC1 [RDEA119]; conditions: top dose 5 µM, top dose inferred
Protocol: (§1)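 Human cancer cell lines in 384-well plates, medium with 10% serum, drug for 72 h over a 256-fold dose range (nine 2-fold or five 4-fold steps up to the top dose). Adherent lines were fixed and stained with the nucleic acid dye Syto60, suspension lines read with resazurin; signal relative to control wells, capped at 0 and 100%. One two-parameter sigmoid per drug and line, fitted in a mixed model over all curves with the slope shared within a line.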

AC220 = compound: CC(C)(C)c1cc(NC(=O)Nc2ccc(-c3cn4c(n3)sc3cc(OCCN5CCOCC5)ccc34)cc2)no1 [AC220]; conditions: top dose 1.024 µM; top dose inferred
Protocol: as §1

5-Fluorouracil = compound: O=c1[nH]cc(F)c(=O)[nH]1 [5-Fluorouracil]; conditions: top dose 32 µM; top dose inferred
Protocol: as §1

OSU-03012 = compound: NCC(=O)Nc1ccc(-n2nc(C(F)(F)F)cc2-c2ccc3c(ccc4ccccc43)c2)cc1 [OSU-03012]; conditions: top dose 16 µM; top dose inferred
Protocol: as §1

JNK-9L = compound: Fc1cc(-c2ccnc(Nc3ccc(-n4cnc(N5CCOCC5)n4)cc3)n2)cc(N2CCOCC2)c1 [JNK-9L]; conditions: top dose 5.12 µM; top dose inferred
Protocol: as §1

CUDC-101 = compound: C#Cc1cccc(Nc2ncnc3cc(OC)c(OCCCCCCC(=O)NO)cc23)c1 [CUDC-101]; conditions: top dose 5.12 µM; top dose inferred
Protocol: as §1

QS11 = compound: OC[C@H](Cc1ccccc1)Nc1nc(Oc2ccc3c(c2)CCC3)nc2c1ncn2Cc1ccc(-c2ccccc2)cc1 [QS11]; conditions: top dose 10.24 µM
Protocol: as §1

Cell Line | AUC (RDEA119; screen: GDSC drug entry 1014) | IC50 (RDEA119; screen: GDSC drug entry 1014) [nM] | AUC (AC220) | IC50 (AC220) [nM] | AUC (5-Fluorouracil) | IC50 (5-Fluorouracil) [nM] | AUC (OSU-03012) | IC50 (OSU-03012) [nM] | AUC (JNK-9L) | IC50 (JNK-9L) [nM] | AUC (CUDC-101) | IC50 (CUDC-101) [nM] | AUC (QS11) | IC50 (QS11) [nM] | AUC (RDEA119; screen: GDSC drug entry 1526) | IC50 (RDEA119; screen: GDSC drug entry 1526) [nM]
8505C (thyroid, adherent) | 0.766 | 1950 | 0.981 | > 1020 | 0.756 | 11600 | 0.586 | 1740 | 0.595 | 593 | 0.529 | 385 | – | – | – | –
COLO-800 (melanoma, adherent) | 0.96 | > 5000 | 0.975 | > 1020 | 0.757 | 10700 | 0.821 | 8900 | – | – | 0.938 | > 5120 | 0.987 | > 10200 | 0.961 | > 5000
D-247MG (glioma, adherent) | 0.795 | 3360 | 0.848 | > 1020 | 0.963 | > 32000 | – | – | 0.775 | 2810 | 0.52 | 369 | – | – | 0.797 | 3400
D-336MG (glioma, adherent) | – | – | 0.972 | > 1020 | 0.97 | > 32000 | – | – | 0.717 | 1600 | – | – | – | – | 0.824 | 4190
EoL-1-cell (haematopoietic neoplasm, suspension) | 0.511 | 334 | – | – | 0.418 | 1220 | 0.602 | 1830 | 0.513 | 347 | 0.223 | 56.3 | 0.675 | 1840 | 0.64 | 724
GAK (melanoma, adherent) | 0.625 | 678 | – | – | 0.946 | > 32000 | 0.754 | 5140 | 0.664 | 892 | 0.716 | 1260 | 0.935 | > 10200 | 0.613 | 629
GDM-1 (acute myeloid leukaemia, suspension) | 0.987 | > 5000 | – | – | 0.528 | 2370 | 0.754 | 5170 | 0.466 | 259 | 0.333 | 112 | 0.774 | 3850 | 0.939 | > 5000
HCC202 (breast, adherent) | 0.979 | > 5000 | – | – | 0.891 | > 32000 | 0.727 | 5830 | – | – | 0.447 | 217 | 0.962 | > 10200 | 0.968 | > 5000
HOP-92 (large cell lung carcinoma, adherent) | – | – | 0.984 | > 1020 | 0.981 | > 32000 | – | – | 0.786 | 2590 | 0.821 | 3580 | 0.961 | > 10200 | 0.728 | 1560
Hs746T (stomach, adherent) | 0.807 | 3740 | 0.98 | > 1020 | 0.906 | > 32000 | – | – | 0.939 | > 5120 | 0.476 | 269 | – | – | 0.853 | > 5000
IGR-37 (melanoma, adherent) | 0.125 | 23.4 | 0.989 | > 1020 | 0.987 | > 32000 | – | – | 0.537 | 400 | 0.423 | 202 | 0.824 | 5380 | 0.147 | 29
KCL-22 (chronic myeloid leukaemia, suspension) | 0.803 | 2020 | – | – | 0.603 | 3640 | 0.55 | 1340 | 0.505 | 330 | 0.427 | 209 | 0.788 | 3710 | 0.893 | 4270
KMRC-20 (kidney, adherent) | 0.878 | > 5000 | 0.989 | > 1020 | 0.976 | > 32000 | 0.761 | 5750 | 0.863 | 4560 | 0.987 | > 5120 | – | – | 0.93 | > 5000
LB647-SCLC (small cell lung carcinoma, semi-adherent) | 0.985 | > 5000 | – | – | 0.931 | > 32000 | 0.753 | 5900 | 0.808 | 3030 | 0.98 | > 5120 | 0.801 | 5710 | – | –
ME-1 (acute myeloid leukaemia, suspension) | 0.567 | 482 | – | – | 0.955 | > 32000 | 0.764 | 6210 | 0.7 | 1220 | 0.62 | 704 | 0.989 | > 10200 | 0.866 | > 5000
MOLM-13 (acute myeloid leukaemia, suspension) | 0.826 | 2780 | – | – | 0.355 | 814 | 0.616 | 2040 | 0.463 | 256 | 0.301 | 91.8 | 0.827 | 5710 | 0.758 | 1630
MONO-MAC-6 (acute myeloid leukaemia, suspension) | 0.893 | > 5000 | – | – | 0.504 | 2050 | 0.678 | 3250 | 0.59 | 573 | 0.42 | 191 | 0.824 | 6550 | 0.901 | > 5000
MV-4-11 (leukaemia, suspension) | 0.621 | 631 | – | – | 0.196 | 315 | 0.631 | 2140 | 0.548 | 423 | – | – | 0.85 | 5730 | 0.679 | 891

Cell Line | AUC (RDEA119; screen: GDSC drug entry 1014) | IC50 (RDEA119; screen: GDSC drug entry 1014) [nM] | AUC (AC220) | IC50 (AC220) [nM] | AUC (5-Fluorouracil) | IC50 (5-Fluorouracil) [nM] | AUC (OSU-03012) | IC50 (OSU-03012) [nM] | AUC (JNK-9L) | IC50 (JNK-9L) [nM] | AUC (CUDC-101) | IC50 (CUDC-101) [nM] | AUC (QS11) | IC50 (QS11) [nM] | AUC (RDEA119; screen: GDSC drug entry 1526) | IC50 (RDEA119; screen: GDSC drug entry 1526) [nM]
NB17 (neuroblastoma, adherent) | 0.984 | > 5000 | 0.87 | > 1020 | 0.397 | 1000 | – | – | 0.61 | 673 | 0.957 | > 5120 | – | – | – | –
NB-4 (acute myeloid leukaemia, suspension) | 0.16 | 38 | – | – | 0.51 | 2120 | 0.417 | 620 | 0.5 | 320 | 0.173 | 42.6 | 0.611 | 1220 | 0.28 | 85.6
NCI-H630 (large intestine, adherent) | 0.853 | 4350 | 0.988 | > 1020 | 0.809 | 18200 | – | – | 0.624 | 722 | 0.687 | 1120 | – | – | 0.845 | 4000
NCI-H1963 (small cell lung carcinoma, suspension) | – | – | – | – | 0.932 | > 32000 | 0.875 | 12300 | 0.67 | 887 | 0.888 | 4460 | 0.97 | > 10200 | – | –
RL95-2 (endometrium, adherent) | – | – | 0.987 | > 1020 | 0.873 | 30200 | – | – | 0.541 | 415 | 0.45 | 234 | – | – | 0.68 | 988
SK-MG-1 (glioma, adherent) | 0.913 | > 5000 | 0.973 | > 1020 | 0.927 | > 32000 | – | – | – | – | 0.535 | 399 | – | – | 0.916 | > 5000
SNU-61 (large intestine, adherent) | 0.89 | > 5000 | 0.972 | > 1020 | 0.664 | 6650 | – | – | – | – | 0.461 | 242 | – | – | 0.828 | 4540
SNU-81 (large intestine, adherent) | 0.744 | 2040 | 0.952 | > 1020 | 0.617 | 4700 | – | – | – | – | 0.979 | > 5120 | – | – | 0.732 | 1830
SNU-407 (large intestine, adherent) | 0.687 | 1150 | 0.942 | > 1020 | 0.589 | 3650 | – | – | – | – | 0.609 | 672 | – | – | 0.303 | 78.8
SNU-1040 (large intestine, adherent) | – | – | 0.93 | > 1020 | 0.842 | > 32000 | – | – | – | – | 0.768 | 2580 | – | – | 0.929 | > 5000
SNU-C5 (large intestine, adherent) | 0.707 | 1280 | 0.981 | > 1020 | 0.868 | > 32000 | – | – | – | – | 0.641 | 819 | – | – | 0.719 | 1400
SU-DHL-10 (B-cell lymphoma, suspension) | 0.998 | > 5000 | 0.978 | > 1020 | 0.782 | 9670 | – | – | 0.388 | 172 | 0.056 | 22.8 | – | – | 0.998 | > 5000
SW48 (large intestine, adherent) | 0.861 | 4200 | 0.987 | > 1020 | 0.77 | 12100 | – | – | 0.539 | 408 | 0.463 | 254 | 0.974 | > 10200 | 0.747 | 1590
SW1116 (large intestine, adherent) | – | – | 0.984 | > 1020 | 0.985 | > 32000 | – | – | – | – | 0.757 | 2360 | – | – | 0.717 | 1630
TE-4 (oesophagus, adherent) | 0.821 | 2890 | 0.985 | > 1020 | 0.976 | > 32000 | – | – | – | – | 0.641 | 783 | – | – | 0.812 | 2660
UWB1.289 (ovary, adherent) | 0.912 | > 5000 | 0.973 | > 1020 | 0.956 | > 32000 | – | – | – | – | 0.563 | 517 | – | – | 0.898 | > 5000
YH-13 (glioma, adherent) | 0.82 | 3090 | 0.967 | > 1020 | 0.98 | > 32000 | – | – | – | – | 0.679 | 1050 | – | – | 0.841 | 3770
